Broadly, the % Inhibition is the relative decrease from the control value, in per cent.

Consider 85 molecules from ChEMBL document CHEMBL4888484, “Replenishing the malaria drug discovery pipeline: Screening and hit evaluation of the MMV Hit Generation Library 1 (HGL1) against asexual blood stage Plasmodium falciparum ,using a nano luciferase reporter read-out” (2022).

About 540 (0.36%) of roughly 150,000 compounds showed an effect of 50% or more. This is one part of the list.

The test system of this assay is Plasmodium falciparum. The experiment in a line: Primary screen in NF54 nanoGlo assay, in single point, at 2uM, 72h; a lower Z score goes with more inhibition. Particulars: timepoint 72 hour. In kind it is functional, Erythrocyte.
Regarding `Cn1ncc2cnn(CCOCC(F)(F)F)c2c1=O`, the “% Inhibition” value worked out at 0% and the Z score was -0.02.
As for `O=C1CC[C@H](NC(=O)c2cc(Cc3ccccc3)ccc2O)CN1`, the “% Inhibition” value is -5% and the Z score came to 0.89.
Turning to `Cc1ccc(-c2cccc(-c3ccn(Cc4ccc5ccccc5n4)n3)c2)nn1`, the “% Inhibition” value is -4% and the Z score was 0.58.
Turning to `C[C@@H](O)CNC(=O)C(=O)Nc1ccc(O)cc1`, the “% Inhibition” value is recorded as -1% and the Z score worked out at 0.15.
`Cc1cc(NC(=O)N2CCC(Oc3cccc(C#N)c3)CC2)ccn1`: the “% Inhibition” value is recorded as -17% and the Z score is 1.94.
For `CS(=O)(=O)N1CC[C@@H](C(=O)N2CCCC2)Oc2ccccc21`, in that order: 10% and -1.21.
As for `CCCNS(=O)(=O)c1cc(NC(=O)CC(C)C)ccc1Oc1c(C)c(C(=O)O)nn1-c1cccc(F)c1`, the “% Inhibition” value is -6% and the Z score turned out to be 0.86.
Take `CC(=O)N1CCC(N2CCC(Oc3cc(Cl)ccc3C(=O)N3CCCCC3)CC2)CC1`: the “% Inhibition” value was -17% and the Z score worked out at 1.46.
As to `O=C1C[C@H](NC(=O)c2cc3cc(Cl)sc3[nH]2)CN1`, the “% Inhibition” value is listed as -5% and the Z score is 0.63.
Turning to `CC1CN(C(=O)C2Cc3cc(Cl)ccc3O2)CC1N(C)C` (stereo not given), the “% Inhibition” value is given as -3% and the Z score was 0.37.
For `CC[C@H](C)Oc1ccccc1-c1nc2c([nH]1)c(C(C)C)nn2C`, the “% Inhibition” value is -16% and the Z score turned out to be 3.28.
As for `CNC(=O)COC1CN(C(=O)c2c(F)cc(F)cc2F)C1`, the “% Inhibition” value is recorded as -17% and the Z score was 1.55.
Regarding `CC[C@@H](CO)NC(=O)Cc1ccc(NC(=O)c2coc(C3CCC3)n2)cc1`, the “% Inhibition” value amounted to 5% and the Z score is given as -0.99.
On to `O=C(NCCc1cc(F)cc2c1OCOC2)N1CCC1`, for which the “% Inhibition” value is recorded as -12% and the Z score is given as 1.29.
On to `COCCNC(=O)CCN(CCOC)c1nc(-c2ccccc2)nc2ccccc12`, for which the “% Inhibition” value is listed as -6% and the Z score is 1.23.
As for `Cc1c(Cl)cccc1S(=O)(=O)N1CC(n2ccnn2)C1`, the “% Inhibition” value was -7% and the Z score stood at 0.81.
On to `Cc1cc(N(C)C(=O)c2nccn3ccnc23)ccc1Br`, for which the “% Inhibition” value came out at 26% and the Z score is recorded as -3.49.
With `Cc1nnc(CN(CCO)c2cccc(Br)c2)s1`, the “% Inhibition” value is on record as 0% and the Z score is -0.03.
`CC1CCCC(C)N1CCCNC(=O)CCc1cn(C)c2ccccc12` (stereo not given): the “% Inhibition” value is -16% and the Z score is given as 1.57.
Regarding `C=CCc1cc(-c2nccn2C2CCN(C)CC2)ccc1OC`, the “% Inhibition” value is listed as -1% and the Z score was found to be 0.21.
Turning to `Cc1nn(C(C)C)c(C)c1CNC(=O)c1c(C)n[nH]c1C1CC1`, the “% Inhibition” value is -25% and the Z score is on record as 2.65.
For `C[C@H]1Cc2cc(-c3cc(CC(=O)N4CCOCC4)no3)ccc2O1`, in that order: -15% and 1.7.
`CCn1c(=O)c(CCC(=O)NCCCN2CCOCC2)nc2c(C)nn(-c3ccccc3)c21`: the “% Inhibition” value was -12% and the Z score came out at 1.96.
As to `CCN(Cc1nccn1C)C(=O)c1ccc(N2CCC[C@H](O)C2)nc1`, the “% Inhibition” value was 13% and the Z score is on record as -1.72.
With `CCCCN(C)c1ncc(Cl)c(C(=O)N2c3ccccc3C[C@@H]2C)n1`, the “% Inhibition” value was -5% and the Z score amounted to 0.76.
`O=C(CCN1CCO[C@H](c2ccc(Cl)cc2)C1)N1CCCC1`: the “% Inhibition” value was -1% and the Z score stood at 0.16.
On to `Cc1cc(C)n2cc(Cn3cnc(C)c3C)nc2n1`, for which the “% Inhibition” value was -9% and the Z score is reported as 1.
`C[C@]1(c2ccccc2Cl)NC(=O)N(CC(=O)Nc2ccccc2C(=O)NCc2ccco2)C1=O`: the “% Inhibition” value is reported as -1% and the Z score is 0.19.
On to `COc1cc(CN2CCC[C@H](Nc3ccc4c(c3)OCCO4)C2)c(Cl)cc1O`, for which the “% Inhibition” value is 2% and the Z score was -0.29.
For `Nc1cnc2c(ccc3nn(-c4ccccc4)nc32)n1`, in that order: 5% and -0.79.
Turning to `C[C@@H](C(=O)N1CCCCC1)N1CCN(C(=O)c2ccncc2F)CC1`, the “% Inhibition” value is listed as -7% and the Z score was found to be 0.65.
`C#CC[C@H](OC(=O)c1cccn1C)c1ccccn1`: the “% Inhibition” value is reported as -4% and the Z score amounted to 0.37.
In the case of `Cc1nn(C)c(C)c1CCNc1ccnc(C(F)(F)F)c1`, the “% Inhibition” value is -3% and the Z score came out at 0.47.
For `CNC(=O)c1noc(CNc2nc(C)nc(C)c2C)n1`, in that order: -21% and 1.88.
For `Cc1nc(C)c(C)c(N2CCC(NC(=O)c3cccnc3)CC2)n1`, in that order: 1% and -0.1.
On to `CCS(=O)(=O)N1CC(=O)N(c2ccc(OC)cc2)[C@](C)(C(=O)NCc2ccccc2OC)C1`, for which the “% Inhibition” value is recorded as 4% and the Z score is given as -0.65.
In the case of `Cc1cnc(C(=O)N2CCC[C@H](c3nnc4ccccn34)C2)o1`, the “% Inhibition” value was -7% and the Z score stood at 0.85.
For the molecule `C[C@H](Nc1ccn(CC(F)(F)F)n1)C(=O)N1CCNC1=O`, the “% Inhibition” value is on record as 9% and the Z score is recorded as -0.89.
Take `CC(C)CO[C@H]1CCN(C(=O)NCC(C)(C)c2cccs2)C1`: the “% Inhibition” value was -14% and the Z score was 1.98.
With `Clc1ccc(CCNc2ncnc3c(-c4ccc(Cl)cc4)noc23)cc1`, the “% Inhibition” value is recorded as -5% and the Z score is reported as 0.96.
As to `CNC(=O)NCC1CCOC1C(C)C` (stereo not given), the “% Inhibition” value is reported as -9% and the Z score is recorded as 0.95.
As to `CN(Cc1nccs1)C(=O)C[C@@H](c1cccc(O)c1)c1ccccc1Cl`, the “% Inhibition” value is given as -4% and the Z score came out at 0.74.
On the same counts, the results for `CCOc1ccccc1NC(=O)CC(=O)N1CCC2(CCN(C)CC2)C1` are -6% and 1.18.
Turning to `Cc1sc(-c2nnc(C(=O)N3CCCCC3)o2)cc1S(=O)(=O)NCc1ccc(N(C)C)cc1`, the “% Inhibition” value is recorded as -12% and the Z score stood at 1.7.
Turning to `N=C(N)NCc1ccc(COCc2ccccc2)cc1`, the “% Inhibition” value is recorded as 29% and the Z score was -5.25.
For `COc1cc(Cl)c(NC(=O)NCCc2nnc(N)o2)cc1C`, the “% Inhibition” value came out at 7% and the Z score is reported as -0.76.
For `CCCc1c(NC(=O)N2CCN(C3CC3)CC2)cnn1-c1cccc(C)c1`, in that order: -10% and 0.96.
With `Cn1ccnc1CCN1CCN(C(=O)c2ccccc2)CC1`, the “% Inhibition” value was -8% and the Z score amounted to 1.23.
Regarding `CC[C@](C)(NCc1ccccc1OC)c1nc(C)cs1`, the “% Inhibition” value is reported as -5% and the Z score is reported as 0.95.
Regarding `CNC(=O)NC(=O)CNc1ccccc1C(F)(F)F`, the “% Inhibition” value is listed as -3% and the Z score worked out at 0.56.
On the same counts, the results for `CC(C)(O)[C@@H]1CCCN1c1nc2ccccc2[nH]1` are -1% and 0.16.
With `O=C(O)c1cc(-c2ccc3c(c2)OCCO3)cc(S(=O)(=O)N2CCCCCC2)c1`, the “% Inhibition” value was 5% and the Z score is listed as -0.67.
Regarding `C=CCN(C(=O)c1ccccc1)c1nc(-c2ccc(C3CCCCC3)cc2)cs1`, the “% Inhibition” value is recorded as 8% and the Z score is -0.92.
For `CCO[C@H]1CN(c2ncnc(Oc3cccnc3C)c2C)C[C@@H]1O`, in that order: -2% and 0.34.
On the same counts, the results for `CC(=O)Oc1ccc(N2C(=O)[C@@H]3C(Cc4c[nH]c5ccccc45)NC4(C(=O)Nc5c(C)cc(Cl)cc54)[C@@H]3C2=O)cc1` (stereo not given in full) are 8% and -0.97.
Consider `Cc1ccc([C@@H]2c3cccn3CCN2C(=O)c2ccc(F)cc2)cc1`, for which the “% Inhibition” value is given as -2% and the Z score was found to be 0.29.
`COCC1(CNCc2cc(OC)ccc2F)CCC1`: the “% Inhibition” value amounted to 6% and the Z score is reported as -0.88.
Regarding `CCN(CC(=O)N1CCC(C2CCOCC2)CC1)C1CC1`, the “% Inhibition” value was determined as 0% and the Z score is listed as 0.05.
On to `CCC[C@H](NCc1cc[nH]n1)c1ncccc1Cl`, for which the “% Inhibition” value is listed as -1% and the Z score stood at 0.26.
Consider `CC(C)N1CCCN(C[C@H]2CCOC(C)(C)C2)CC1`, for which the “% Inhibition” value is -5% and the Z score turned out to be 0.86.
For the molecule `CCOC(=O)CN(Cc1ncccn1)C(=O)[C@H](C)Oc1cccc(C#N)c1`, the “% Inhibition” value is on record as -10% and the Z score worked out at 1.34.
As to `Cc1ccccc1C1(C(=O)N(C)c2cnn(C)c2)CCCC1`, the “% Inhibition” value amounted to 2% and the Z score was -0.34.
As for `COC1CCN([C@H]2CCC[C@H]2NC(=O)Nc2cnn(-c3ncccc3C#N)c2)C1` (stereo not given in full), the “% Inhibition” value is listed as -8% and the Z score is on record as 1.66.
Consider `CCn1nc(C)c(CCN(C)c2ncc(NS(=O)(=O)c3cccc(F)c3)cc2C(=O)O)c1C`, for which the “% Inhibition” value was found to be 6% and the Z score was -0.55.
Regarding `CCN(C(=O)C(=O)Nc1cc(C)on1)C1CCCCC1`, the “% Inhibition” value is -2% and the Z score amounted to 0.18.
As to `C[C@H](NC(=O)c1ccccc1CC(C)(C)C)c1nc[nH]n1`, the “% Inhibition” value was 7% and the Z score is listed as -1.24.
For `COc1ccc2c(c1)O[C@@H](C)CN(CCNC(=O)c1cc(C)nc(C)n1)C2`, in that order: -9% and 1.64.
For `COC(=O)c1cccc(-c2nc(-c3cn(-c4ccc(C)cc4)nn3)no2)c1`, the “% Inhibition” value is listed as -26% and the Z score worked out at 5.19.
Regarding `CCNC(=O)[C@H]1CCN(S(=O)(=O)c2cc(Cl)c(Cl)s2)C1`, the “% Inhibition” value turned out to be 4% and the Z score is on record as -0.58.
Turning to `Cc1c(-c2cc(-c3cnn(C)c3C)n(S(=O)(=O)c3ccc(Cl)cc3)n2)cnn1C`, the “% Inhibition” value was 35% and the Z score is given as -3.92.
With `CCNC(=O)c1ccnc(NCCc2nc(C)cc(=O)[nH]2)c1`, the “% Inhibition” value was -7% and the Z score is on record as 1.28.
Regarding `O=C(N[C@@H](Cc1ccccc1)c1ccccc1)c1cc2n(n1)CCN(Cc1ccccc1)C2=O`, the “% Inhibition” value is given as 13% and the Z score is on record as -1.43.
For `CCN(C(=O)c1cc(F)c(F)cc1Cl)c1ccncc1`, the “% Inhibition” value is reported as 3% and the Z score was -0.43.
On to `COC(=O)C1=C(C(=O)OC)c2ccc(C)c3cc(C)c(n23)C=C1`, for which the “% Inhibition” value was 2% and the Z score was -0.18.
In the case of `CO[C@H]1CN(Cc2csc3ccccc23)C[C@@H]1O`, the “% Inhibition” value is -7% and the Z score turned out to be 1.21.
On the same counts, the results for `COCCn1cncc1CN1CCO[C@H](C(F)(F)F)C1` are 4% and -0.67.
As to `CO[C@H]1C[C@@H](O)C12CCN(c1nc(C(N)=O)cs1)CC2`, the “% Inhibition” value is on record as -5% and the Z score is given as 0.79.
For `Cc1nc(-c2cccc(Cl)c2)sc1C(=O)N(CC(=O)O)C1CCOCC1`, in that order: -2% and 0.27.
Take `CC(=O)Nc1ccc(C(=O)N2CCc3[nH]c(=O)c(C#N)cc3C2)cc1`: the “% Inhibition” value is recorded as -8% and the Z score amounted to 1.28.
For `COc1c(NC(=O)C2CC23CCCc2ccccc23)c(C)nn1C` (stereo not given), in that order: 14% and -1.65.
On to `CC(=O)N(CCN1CCCCC1)[C@H]1CCCN(Cc2c(C)nn(C)c2C)C1`, for which the “% Inhibition” value was -4% and the Z score came to 0.57.
On to `N#Cc1cccc(CN[C@H]2CC23CCOCC3)c1`, for which the “% Inhibition” value is reported as -6% and the Z score turned out to be 0.89.
Take `CC(=O)N(Cc1nccn1Cc1ccccc1)C1CC1`: the “% Inhibition” value is given as -17% and the Z score is recorded as 1.66.
For `COC(=O)COc1ccccc1CN1CCCn2cncc2C1`, the “% Inhibition” value is 6% and the Z score is on record as -0.79.
Regarding `CC(C)C(=O)N1CCN(c2ccc(NC(=O)c3ccc4ccccc4c3)cc2Cl)CC1`, the “% Inhibition” value is on record as 4% and the Z score is listed as -0.67.
